Test results from the supplement of paper PMC11417369.
The other results are listed elsewhere or left out.

These sequences were tested on PfHDP1 homeodomain (GST-tagged) (assay: gcPBM binding intensity (ln(normalized median fluorescence intensity)); higher = stronger DNA binding).
Outline: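 The binding buffer was 1× PBS containing 1% milk, 0.2 mg/ml BSA, 0.5% salmon testes DNA and 0.03% Triton X-100. In it, GST-tagged P. falciparum DNA-binding domains expressed in E. coli were applied for 1 h to an Agilent 4 × 180k array of primer-extended double-stranded 36-bp intergenic genomic probes plus negative controls. Binding intensity, read with Alexa488 anti-GST antibody and a 488 nm scan, is the highest Masliner-normalised natural-log median intensity across replicate spots of either probe orientation.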

Row | Sequence | gcPBM binding intensity (ln)
1 | CACAATACTTTCATCACACATATATATATATATATA [CACACA_site4677] | 9.36
2 | ACTAAACTAATATGTACACACATATAACATTAATTT [CACACA_site7128] | 6.62
3 | TTTCGTTCATAAAAAAGTACATATGAGCAAAAGGTA [XGTACX_site8936] | 9.58
4 | GAATTAAAATAATACGTACACACATGTATAATACAT [CACACA_site1004] | 6.72
5 | TATATATATATATATAGTACATATTTATATATGAAA [XGTACX_site8488] | 9.34
6 | TTGTTCTATTTAAGTAGTACATACACACACATATAC [XGTACX_site8484] | 7.01
7 | ACATATATATATTCTACACACTTATAATATAATACA [CACACA_site2461] | 6.83
8 | ATTTTTCTTTTTAATACACACAAAAGTGATACAAAC [CACACA_site3923] | 6.98
9 | TTTTTTTGTATTTGTTTATTTAATGATAAAATTAAA [CACACA_negctrl_site225] | 6.64
10 | TGTATTATATATACACAAATATTTATGTGTGTGTTT [XGTACX_negctrl_site475] | 6.71
11 | AAATAATATTTTTTTTTTTTTTTTTTTTTATGTTAT [CACACA_negctrl_site809] | 6.06
12 | TGGTAGTATATCATAGAAATCATTGTATAACAAATA [XGTACX_negctrl_site569] | 6.19
13 | AAAAAAAAAAAAAAAACACACAAATCATAAATAAAT [CACACA_site478] | 6.58
14 | ATAGTCTTAATGACTACACACCTAACTATGCATGCA [CACACA_site5084] | 6.24
15 | ATACAGTTGCATATGGTGCACGAATAATACACCTAT | 10.4
16 | ATAGTATCTGGTAGCTGTACGAGTCGTAGAGTGTAG [XGTACX_site2030] | 7.08
17 | TATGTATTTTTTAAGTGTACCTATATATATATATAT [XGTACX_site7934] | 9.25
18 | TGGGAAGGGTGGGAAACTTTATCAAAAACTTATTAC [GTGCAC_negctrl_site16] | 6.83
19 | TATAATAATAATTATTGTACGATTAGGTTAATTCAT [XGTACX_site1984] | 6.23
20 | AGAAAGGTGGTATTAAAAGAATAACCTATGAATAAA [GTGCAC_negctrl_site325] | 6.45
21 | ATAATATATACTATATGTACATATCTTTTCCTCTTT [XGTACX_site5553] | 6.76
22 | TTTTTCATAAAAAAATAAAAAAAATTAACATAGAAA [XGTACX_negctrl_site11] | 6.34

Row | Sequence | gcPBM binding intensity (ln)
23 | TTTTAGAGTGGTATATATTAATTTTTAATAAAAAAA [CACACA_negctrl_site1652] | 6.33
24 | TGTGCATAAATTTATGCACACATAAAAAAAAAAAAA [CACACA_site8954] | 11
25 | AATAAAAGAAGACAGAGTACACAGGTTGTATTTTCC [XGTACX_site7208] | 6.36
26 | AGGTTTCATTTAGCATGTACATATTATAAAAATTGT [XGTACX_site8448] | 6.73
27 | AAGATTACTTATATATGTACACATAATACAAATGTC [XGTACX_site520] | 6.39
28 | TCTGTTAATATTTATACACACATATATATATATATA [CACACA_site1139] | 9.27
29 | AAAAAATTATACCTTTGTACATAAATAAAATATTAT [XGTACX_site418] | 6.23
30 | ATAACATAAGGAAATACACACATATATAAGTATATA [CACACA_site778] | 6.43
31 | ACCCATTGCTCACGTGCACACATAGAAAAATAATTC [CACACA_site4389] | 10.7
32 | TATGTATATATTTACGCATGCTACTCTATTTTGAGA [TGCATGCA_site990] | 6.72
33 | TTTATATAAATTTATTCACACAACTAATTTTTTAAA [CACACA_site4848] | 6.5
34 | TGATAAATTAAAAATTGTACTATTATAATAATATAT [XGTACX_site6615] | 6.57
35 | ATCAAATAGAGACACACACACCTAAACATAAAAGAA [CACACA_site7321] | 6.94
36 | ACAATAAACATATATACACACACAAAAAAAAAAACA [CACACA_site8033] | 6.72
37 | CATATATATTTGTTCACACACACACTAATAAAAAAA [CACACA_site8787] | 6.85
38 | TGGAGGAACCTCATATGTACGTATAAATATATATTT [XGTACX_site5603] | 6.6
39 | TTAAAGCACCCATGCACACACACAAAGGAAAAGAAA [CACACA_site233] | 8.78
40 | TTGTGTAAAGGTATTATTGTATTATTCAAAATAAAA [XGTACX_negctrl_site167] | 6.43
41 | AATATATAATATATATGTACTTATATATAAAAGATA [XGTACX_site7635] | 6.55
42 | ATTTATTAATATCCCAGTACTCATGGGGAATAATGA [XGTACX_site4014] | 5.99
43 | GGTAGGGATTATACCACACACACATACACATAAATA [CACACA_site3179] | 6.8
44 | ACTATTAAAATGAATACACACAAATATAAAAATATA [CACACA_site4145] | 6.43
